The whole screen tested about 320,000 compounds, of which about 9,100 (2.8%) were called active. This list was built around the results that the source calls inconclusive (neither active nor inactive); the mix of calls is not that of the screen. Calls follow the shape of the dose curve; as a rule, active = well fitted activation curve with a large enough effect; inconclusive = small, poorly fitted or top-dose-only effect; inactive = no such curve, though single readings can be large or run the other way. A potency beside an inconclusive call is a rough fit, not a confirmed value.
Assay: qHTS Assay for Rab9 Promoter Activators; also: nearly all actives have a fitted effect of over 60% in size; as to activation, negative = inhibition: % of control where 0% means no effect
Conditions: Huh7 Rab9 promoter-luciferase reporter, luminescence, 24 h; series mostly up to 9.22 µM
Procedure, shortened: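 Huh7 cells stably carrying a Rab9 promoter-luciferase reporter, 1500 cells per well in OP-MEM I with 10% FBS, treated with compound 24 hours at 37C. Luciferase activity read by luminescence after 10 minutes with Amplite reagent.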
Potency is read from the fitted curve at half-maximal effect; tags tell the direction and shape of the fitted curve.

Potency, inconclusive:
CCn1ccc(C(=O)Nc2ccc(N(C)C(C)=O)cc2)n1 1.78 µM [activator, partial curve]
O=C(N/N=C/c1cccnc1)c1ccc2c(c1)OCO2 2.82 µM [activator, partial curve]
O=C(Cc1cccs1)NCc1ccccc1 3.55 µM [activator, partial curve]
O=C(O)c1ccnc2c(O)cccc12 3.55 µM [activator, partial curve]
COc1ccc2c(c1)oc(=O)c1c3ccccc3[nH]c21 0.891 µM [activator, single point]
COC(=O)C1(S(=O)(=O)c2cccc3nsnc23)CC1 0.708 µM [activator, single point]
O=C(Nc1ccccc1)Nc1nnc(-c2cccs2)s1 1.41 µM [activator, partial curve]
Cn1cc([N+](=O)[O-])c(C(=O)Nc2ccc(-c3nc4ccccc4o3)cc2)n1 2 µM [activator, partial curve]
Brc1ccc(-c2csc(NC3=NCCCCC3)n2)cc1 3.55 µM [activator, single point]
Cc1cccc(-n2cc(-c3ccccc3)[nH]c2=S)c1 1.26 µM [activator, full curve, poor fit]
O=C(Nc1ccccc1F)c1ccncc1 5.62 µM [activator, single point]
Cc1ccc(-n2nc3c(=O)n(CCCC(=O)NCc4ccco4)nc(C)c3c2C)cc1 1.26 µM [activator, single point]
O=C(Nc1ccc(N2CCOCC2)nc1)c1ccccc1Cl 5.62 µM [activator, single point]
Cc1cc(/C=C2\NC(=S)NC2=O)c(C)n1-c1cccnc1 6.31 µM [activator, single point]
Cc1oc2cc(O)cc(O)c2c(=O)c1-c1ccc2c(c1)OCCCO2 5.62 µM [activator, single point]
O=C(COC(=O)C1CC1)Nc1ccc(Oc2ccccc2)cc1 1.26 µM [activator, partial curve]
CC1(C)CNc2cc([N+](=O)[O-])ccc2S1 4.47 µM [activator, partial curve]
O=C(Nc1ccc(N2CCOCC2)cc1)Nc1cnsn1 3.55 µM [activator, partial curve]
O=C(COc1ccc(Br)cc1Cl)NC(=O)NC1CCCC1 1.58 µM [activator, partial curve]
NC(=O)c1cccc(NC(=O)Nc2ccc(Cl)cc2)c1 3.98 µM [activator, partial curve, poor fit]
O=C(NCCc1c[nH]c2ccccc12)c1c(Cl)nc2sccn12 3.55 µM [activator, single point]
O=C(CSc1ccc(-c2ccccn2)nn1)N1CCCCC1 6.31 µM [activator, single point]
CCOC(=O)c1csc(NC(=O)c2cc(=O)c3ccccc3o2)n1 3.98 µM [activator, single point]
Cc1ccc2nc(NC(=O)Cc3cccs3)sc2c1 2 µM [activator, partial curve]
O=C(C1CN(C(=O)c2cc3cc(Cl)ccc3o2)c2ccccc2O1)N1CCCCC1 (stereo not given) 1.26 µM [activator, single point]
O=C(c1ccco1)N(CCO)Cc1cc2cc3c(cc2[nH]c1=O)OCO3 3.16 µM [activator, single point]
CCCOc1ccc(NC(=O)c2cc3cc(C)ccc3[nH]2)cc1 0.282 µM [activator, full curve, poor fit]
Cc1ccc(NC(=O)Nc2ccc(Cl)cc2)c(Br)c1 3.55 µM [activator, partial curve]
CCNc1nc(NCC)nc(N/N=C/c2ccc(O)c(O)c2)n1 6.31 µM [activator, single point]
CCn1cnc2sc(C(=O)Oc3cccc(C)c3)c(C)c2c1=O 5.01 µM [activator, single point]
COc1cccc(NC(=O)Nc2ccc3c(c2)nnn3C)c1 5.62 µM [activator, single point]
Fc1ccc(Nc2ccnc(Nc3ccc(F)cc3)n2)cc1 5.62 µM [activator, single point]
O=C(COc1ccc(F)cc1)Nc1nc2c(s1)CCCC2 6.31 µM [activator, single point]
COc1cc(/C=N/NC(=O)c2ccccn2)ccc1OC(=O)c1ccccc1Br 3.55 µM [activator, partial curve]
O=C(Nc1nc2ccccc2s1)C1CCCO1 (stereo not given) 1.78 µM [activator, partial curve]
O=c1c(Br)c(N2CCOCC2)cnn1-c1ccccc1 3.55 µM [activator, partial curve]
COc1cc(/C=N/NC(=O)Nc2ccccc2)ccc1OC(C)=O 5.62 µM [activator, single point]
Cc1ccn2cc(-c3cccc([N+](=O)[O-])c3)nc2c1 0.447 µM [activator, partial curve, poor fit]
Cc1ccnc(NC(=O)c2ccc(NC(=O)c3ccco3)cc2)c1 0.794 µM [activator, full curve]
Cc1cc(C)n(CC(=O)NC2CCCc3c2cnn3-c2ccc(C)c(C)c2)n1 (stereo not given) 3.55 µM [activator, partial curve]
O=C(N/N=C/c1cccs1)c1ccc2ccccc2c1 2.24 µM [activator, partial curve]
Cc1ccc(S(=O)(=O)/N=C2\C=C(Nc3cccc(C(=O)O)c3)C(=O)c3ccccc32)cc1 1 µM [activator, full curve, poor fit]
O=C(N/N=C/c1ccc(OCc2ccccc2)cc1)c1ccc(O)cc1 1.26 µM [activator, single point]

Potency, active:
O=C1CCCC(O)=C1N=Nc1ccc2c(c1)OCO2 3.16 µM
Cc1cccc(NC(=O)NC2CCCCCCC2)c1 3.55 µM
COc1cc(/C=C/c2ccc(O)cc2)cc(OC)c1 3.16 µM
Cc1ccn2cc(-c3ccc(Br)cc3)nc2c1 0.562 µM
C=CCNC(=S)NNC(=O)COc1ccc2cc(Br)ccc2c1 3.16 µM
O=C(c1cc(-c2ccc(Cl)cc2)on1)N1CCCC1 0.447 µM
Cc1cc(C(=O)COC(=O)c2ccc(Cl)c(S(N)(=O)=O)c2)c(C)n1CC1CCCO1 (stereo not given) 0.708 µM
Fc1cccc2sc(Nc3nnc(-c4ccco4)o3)nc12 2.51 µM
Cc1nnc(NC(=O)c2sc3ccccc3c2Cl)s1 1 µM
Nc1ncc(Br)cc1N=Cc1ccccc1 3.55 µM
O=C(Nc1ccccc1)Nc1ccc2c(c1)CCC2 3.55 µM
CC(C)(C)n1cnc2cc(NC(=O)c3cccs3)ccc21 1.26 µM
O=C(Nc1ccc(C(=O)c2ccccc2)cc1)c1ccccc1 2 µM
Cc1ccc2nc(Cl)c(/C=C/C(=O)c3ccco3)cc2c1 3.55 µM
CC(C)(C)c1csc(NC(=O)c2cccs2)n1 3.55 µM
Cn1cccc1/C=C1\SC(=O)N(c2ccccc2)C1=O 0.708 µM
CSc1ncccc1C(=O)OCC(=O)c1cc(C)n(CC2CCCO2)c1C (stereo not given) 0.398 µM
O=C(NNC(=S)Nc1ccccc1Cl)c1ccccc1Br 3.98 µM
CN(C)c1cccc(/C=C(\C#N)c2ccccc2)c1 0.501 µM

Potency, inactive:
N=c1oc2ccccc2cc1-c1nc(-c2ccccc2)cs1
O=C(CSc1nncn1-c1ccccc1)NC1CCCCC1
COCCCNCCOCCOc1c(OC)cccc1OC
CCOC(=O)N1CCN(S(=O)(=O)N2CCCC(C(=O)NCc3cccc(OC)c3)C2)CC1 (stereo not given)
O=C(COC(=O)/C=C/c1cccs1)NC1CC1
COC(C/C=C/[C@@H](O)COCc1ccccc1)OC
Cc1cc(Cl)ccc1OCC(=O)Nc1cccnc1
O=C(Nc1ccccc1N1CCOCC1)c1ccccc1NS(=O)(=O)c1ccc(F)c(F)c1
CN(c1ccccc1C(=O)Nc1cccc([N+](=O)[O-])c1)S(C)(=O)=O
O=C(NCc1ccccn1)Nc1cccc(Cl)c1
Cc1ccsc1CN(C)C(=O)CN1C(=O)NC(c2ccccc2)(c2ccccc2)C1=O
CC1CCC2C(C1)c1sc(=O)[nH]c1SC2(C)C (stereo not given)
O=C(COC(=O)CNC(=O)C1CCCCC1)Nc1cccc(F)c1
O=C(O)c1nn2cc(CCO)cnc2c1Cl
COc1ccc(Cl)cc1NC(=O)CN(C)C(=O)c1ccc(-n2nc(C)cc2C)cc1
Cc1cccnc1NC(=O)CCNC(=O)c1ccc(Cl)cc1
CCCN(C(=O)COC(=O)CNC(=O)c1ccc2ccccc2c1)c1c(N)n(Cc2ccccc2)c(=O)[nH]c1=O

activation, negative = inhibition, inactive:
COc1cc(OC)c(C(=O)O/N=C(\N)c2cccc(C)c2)cc1OC 0.515% [at 1.84 µM]

— PubChem BioAssay AID485297 (National Center for Advancing Translational Sciences (NCATS), 2010)
